Results: PubChem BioAssay AID651820 (National Center for Advancing Translational Sciences (NCATS), 2012)
Several values for one entry are separate records, joined by “and”; a condition that tells them apart may be missing. Identical values can stand only once. Out of some 340,000 compounds screened, about 12,000 (3.5%) were called active. Inconclusive results, whose numbers are uncertain, are shown with a selection of clear calls. The call rests on the fitted dose curve; in most records, active means well fitted inhibition curve with a large enough effect; inconclusive means small, poorly fitted or top-dose-only effect, or another doubt; inactive means no such curve, though single readings can be large or run the other way. A potency beside an inconclusive call is a rough fit, not a confirmed value.
On the % scale 0 is the no-effect control and ±100 the full control effect; potency means the concentration at half of the fitted maximal effect; tags describe the fitted curve by direction and shape.

Experiment: qHTS Assay for Inhibitors of Hepatitis C Virus (HCV)
Settings: Huh7.5.1 HCVcc-Cre (HCVcc is cell-culture hepatitis C virus) infection, luciferase reporter, 44 h; activity change, negative = inhibition: at 41.8 µM (top of the series)
In short: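 Infectious HCVcc-Cre (~0.5 moi) was added to cells just after compound, with cells seeded 4 h earlier at 1,000 per well. Luciferase activity after 44 h culture reported infection; substrate was incubated 15 min at room temperature before reading.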
In the case of `CC(C)(C)c1ccc(/C=C(\C#N)C(=O)NC2CC2)cc1`, the activity change, negative = inhibition is reported as inconclusive: -35.8% [inhibitor].
In the case of `COC(=O)c1cc(Br)cn1S(=O)(=O)c1ccccc1`, the “activity change, negative = inhibition” value is reported as inactive: -7.04%.
In the case of `CCCNC(=S)N1CCC(C(=O)c2ccc(Cl)cc2)CC1`, the Potency is reported as inconclusive: 14.1 µM [inhibitor, single point].
In the case of `Oc1ccc(C=NNC(=S)Nc2ccc(F)cc2)c(O)c1`, the Potency is reported as inconclusive: 22.4 µM [inhibitor, single point].
For `CCN(CC)S(=O)(=O)c1ccc(C(=O)Nc2cc3oc4ccccc4c3cc2OC)cc1`, the “activity change, negative = inhibition” value was inactive: 0.517%.
For `C[C@H]1COC(=O)[C@H](Cc2ccc(F)cc2)CC/C=C/C[C@@H](CC(=O)N(CCO)Cc2ccccc2)C(=O)N1`, the Potency was inconclusive: 35.5 µM [inhibitor, partial curve].
In the case of `COc1ccc(CNC(=O)C[C@H]2C(=O)N(Cc3ccccc3)C[C@@H]2Cc2ccccc2)cc1`, the Potency is reported as inconclusive: 17.8 µM [inhibitor, single point].
In the case of `CC(C)(C)c1csc(N/N=C/c2ccc(O)cc2)n1`, the Potency is reported as inconclusive: 31.6 µM [inhibitor, single point].
In the case of `COc1ccccc1-n1c(CCC(=O)O)ccc1-c1ccccc1`, the “activity change, negative = inhibition” value is reported as inactive: -1.69%.
In the case of `O=C(NCc1ccccc1F)c1cccc(S(=O)(=O)N2CCCCCC2)c1`, the Potency is reported as inconclusive: 22.4 µM [inhibitor, single point].
In the case of `CC(C)Oc1ccc(CNC(=O)c2ccc3c(c2)N(C)CCS3)cc1`, the “activity change, negative = inhibition” value is reported as inactive: -2.92%.
For `Cn1c(COc2ccc(Cl)cc2Cl)nnc1SCC(=O)NCC1CCCO1` (stereo unspecified), the “activity change, negative = inhibition” value was inactive: -9.94%.
In the case of `Cc1ccc(NC(=O)c2noc3c2CCCCC3)cc1`, the “activity change, negative = inhibition” value is reported as inactive: -1.15%.
In the case of `NNc1nc(-c2ccccc2Cl)nc2sc3c(c12)CCCC3`, the Potency is reported as inconclusive: 3.98 µM [inhibitor, full curve].
In the case of `S=C(NCc1ccccc1)Nc1ccc(Oc2ccccc2)cc1`, the Potency is reported as inconclusive: 25.1 µM [inhibitor, single point].
For `Cc1ccc(NC(=O)C2CCN(c3ncnc4sc(C)c(C)c34)CC2)cc1S(=O)(=O)N(C)C`, the Potency was active: 10 µM.
For `Cc1cc(Cl)ccc1NC(=S)NCc1ccc(F)cc1`, the “activity change, negative = inhibition” value was inactive: 13.3%.
With `CCc1nc(-c2ccc(-c3ccc(OC)cc3)nc2OC)no1` the Potency was inconclusive: 12.6 µM [inhibitor, partial curve].
In the case of `CCOc1c(Cl)cnn(-c2ccc(C)cc2)c1=O`, the “activity change, negative = inhibition” value is reported as inactive: -2.19%.
With `CCOc1ccc(NC(=O)Nc2nc(SCC)ns2)cc1` the Potency was inconclusive: 11.2 µM [inhibitor, single point].
For `CCOC(=O)C1=C(Nc2ccccc2)CC(C)(O)C(C(=O)OCC)C1c1ccc(Cl)cc1` (stereo unspecified), the Potency was inconclusive: 11.2 µM [inhibitor, partial curve] and inconclusive: 31.6 µM [inhibitor, single point].
For `Cc1ccc(NC(=O)c2ccc(Cl)cc2Cl)cc1O`, the Potency was inconclusive: 31.6 µM [inhibitor, single point].
For `CCOC(=O)C1(CCc2ccccc2)CCN(Cc2cc(OC)c(OC)cc2OC)CC1`, the Potency was inconclusive: 11.2 µM [inhibitor, partial curve].
In the case of `CCN(C(=S)NCc1ccccc1)c1cccc2ccccc12`, the Potency is reported as inconclusive: 22.4 µM [inhibitor, partial curve, poor fit].
For `Cc1ccc(S(=O)(=O)NCCOC(=O)Nc2sc(=S)n(C)c2C)cc1`, the Potency was inconclusive: 31.6 µM [inhibitor, single point].
With `O=C(O)c1cnc(-c2ccccc2)nc1Oc1ccccc1` the Potency was active: 3.55 µM.
For `COC(=O)c1ccccc1NC(=O)c1sc(Cl)nc1C`, the Potency was inconclusive: 25.1 µM [inhibitor, partial curve].
With `O=C(N/N=C/C(Br)=C/c1ccccc1)C1CC1` the “activity change, negative = inhibition” value was inactive: -17.2%.
For `COc1ccccc1Cn1c(=S)[nH]c2cc(C(=O)NCC3CCCO3)ccc2c1=O` (stereo unspecified), the Potency was inconclusive: 17.8 µM [inhibitor, partial curve, poor fit].
For `Cc1ccn2c(=O)c(C(=O)NC3CCCCC3C)c(O)nc2c1` (stereo unspecified), the Potency was inconclusive: 22.4 µM [inhibitor, single point].
In the case of `CCn1c(=O)c(C(=O)NCc2ccccc2)c(O)c2ccccc21`, the Potency is reported as inconclusive: 31.6 µM [inhibitor, single point].
With `Cc1cccc2cc(CN(CC3CCCO3)C(c3nnnn3Cc3ccco3)C(C)C)c(=O)[nH]c12` (stereo unspecified) the Potency was inconclusive: 31.6 µM [inhibitor, single point].
With `C[C@]12CC[C@H](O)C[C@H]1CC[C@@H]1C2CC[C@]2(C)[C@@H](C3=CC(=O)OC3)[C@@H](O)C[C@]12O` (stereo partly specified) the Potency was inconclusive: 7.94 µM [inhibitor, partial curve].
With `Cc1cc(CNC[C@H]2O[C@@H](n3cnc(C(N)=O)n3)[C@H](O)[C@@H]2O)c(C)n1-c1cccnc1` the Potency was inconclusive: 2.51 µM [inhibitor, full curve].
In the case of `CSCCC(NC(=O)c1ccc(Cl)c([N+](=O)[O-])c1)C(=O)N1CCN(C/C=C/c2ccccc2)CC1` (stereo unspecified), the Potency is reported as inconclusive: 22.4 µM [inhibitor, single point].
With `CCN(CC)c1nc(C#N)cc(-c2ccc(OC)cc2)n1` the Potency was active: 7.08 µM.
In the case of `O=C(NC(=S)NCCC1=CCCCC1)c1ccc(Br)o1`, the Potency is reported as inconclusive: 3.55 µM [inhibitor, full curve].
In the case of `CCN(C(=O)CSc1ccc2ccccc2n1)C1CCCCC1`, the Potency is reported as inconclusive: 22.4 µM [inhibitor, single point].
In the case of `COC(=O)c1nn(C23CC4CC(CC(C4)C2)C3)c2c1C(=O)N(c1ccc(F)cc1)C2=O`, the Potency is reported as inconclusive: 5.01 µM [inhibitor, single point].
In the case of `COc1ccc(N=Cc2c(O)n(C)c(=O)n(C)c2=O)cc1`, the “activity change, negative = inhibition” value is reported as inactive: 9.53%.
In the case of `O=C1CCCN1c1ccc(C(=O)N(Cc2nnc(-c3ccccc3Cl)o2)C2CC2)cc1`, the Potency is reported as inconclusive: 31.6 µM [inhibitor, single point].
In the case of `Cc1ccc(NC(=O)CNc2cccc(S(=O)(=O)N3CCOCC3)c2)cc1F`, the Potency is reported as inconclusive: 8.91 µM [inhibitor, partial curve].
For `O=C1C=CC(=O)N1Cc1ccccn1`, the Potency was inconclusive: 22.4 µM [inhibitor, single point].
In the case of `O=S(=O)(c1cc(C(F)(F)F)ccc1Cl)N1CCCCCC1`, the “activity change, negative = inhibition” value is reported as inactive: 5.7%.
For `CCOc1cc2c3c(c1)C1(C(=O)N3C(C)(C)CC2C)C(C#N)=C(N)N2C(=C1C#N)Nc1ccccc12` (stereo unspecified), the Potency was inconclusive: 15.8 µM [inhibitor, single point].
In the case of `CC(=O)N1N=C(c2c(-c3ccccc3)c3cc(C)ccc3[nH]c2=O)CC1c1ccco1` (stereo unspecified), the Potency is reported as inconclusive: 10 µM [inhibitor, partial curve, poor fit].
For `Cn1nc(-c2ccccc2)c2ncc(C(F)(F)F)cc21`, the Potency was inconclusive: 25.1 µM [inhibitor, single point].
In the case of `C[C@@]12C(=O)N(c3cccc(Cl)c3)C(=O)N1[C@H](c1ccc(Cl)cc1)[C@@H]1C(=O)N(C3CCCCC3)C(=O)[C@@H]12`, the “activity change, negative = inhibition” value is reported as inactive: -20.6%.
With `O=C(Nc1ccc(C(=O)N2CCCC2)cc1)Nc1ccc(Cl)cc1Cl` the Potency was inconclusive: 1 µM [inhibitor, full curve, poor fit].
For `CCOc1ccc2[nH]c(=O)c(CN(Cc3ccco3)Cc3nnnn3Cc3ccccc3)cc2c1`, the Potency was “inactive and inconclusive: 17.8 µM [inhibitor, single point]”.
In the case of `O=C1c2ccccc2C(Nc2ccc(F)c(Cl)c2)N1Cc1ccco1` (stereo unspecified), the Potency is reported as inconclusive: 31.6 µM [inhibitor, single point].
For `COc1ccc(CNC(=O)c2cccc(N(C)C)c2)cc1`, the “activity change, negative = inhibition” value was inactive: -13.4%.
With `COc1ccc(-c2nc(CN3CCN(c4ncnc5ccccc45)CC3)c(C)o2)c(OC)c1` the Potency was active: 5.01 µM.
In the case of `N#Cc1c(N)nc(SCC(=O)OCc2ccccc2)c(C#N)c1-c1ccco1`, the “activity change, negative = inhibition” value is reported as inactive: -15.7%.
With `Cc1ccc(C(=O)ON=C2CCN(c3ccc([N+](=O)[O-])cc3)CC2)cc1` the Potency was inconclusive: 1.58 µM [inhibitor, partial curve].
For `CCN(CC)C(=O)[C@H]1CC(CC(=O)NCCC2=CCCCC2)C(=O)N2CCc3c([nH]c4ccc(OC)cc34)[C@]12C` (stereo partly specified), the Potency was inconclusive: 5.62 µM [inhibitor, partial curve].
For `O=C(CCC(=O)c1cccs1)NCC(=O)Nc1ccc(F)c(F)c1F`, the Potency was inconclusive: 0.316 µM [inhibitor, full curve, poor fit].
For `Cc1ccc(S(=O)(=O)N2CCN(C(=O)c3c(C)nn(-c4ccccc4)c3Cl)CC2)cc1`, the Potency was inconclusive: 31.6 µM [inhibitor, single point].
With `C/C(=N\Nc1cccc(C(F)(F)F)c1)c1ccc(O)cc1` the Potency was inconclusive: 7.08 µM [inhibitor, full curve].
In the case of `CC(C)[C@H](CN(N=O)[C@@H](Cc1ccccc1)CN(C)N=O)N(CCc1ccccc1)N=O`, the Potency is reported as inconclusive: 3.55 µM [inhibitor, single point].
In the case of `Cc1ccc(OCCCCN2CCC(C)CC2)c(Br)c1`, the Potency is reported as inconclusive: 22.4 µM [inhibitor, single point].
For `O=[N+]([O-])/C=C/c1cn(Cc2ccc(F)cc2)c2ccccc12`, the Potency was active: 8.91 µM.
With `CC1=C(C(=O)Nc2cccc(C(=O)NC3CCCCC3C)c2)SCCO1` (stereo unspecified) the Potency was inconclusive: 31.6 µM [inhibitor, single point].
For `Cc1cccc(OCCNc2cc(N3CCN(CCO)CC3)ccc2[N+](=O)[O-])c1`, the Potency was inconclusive: 11.2 µM [inhibitor, single point].
With `CC1CCc2sc(C(=O)N3CCC(C(N)=O)CC3)cc2C1` (stereo unspecified) the “activity change, negative = inhibition” value was inactive: 10.6%.
For `COc1ccc(OC)c(CN2CCN(C(=O)CNC(=O)c3cc(C)cc(C)c3)CC2)c1`, the Potency was inconclusive: 28.2 µM [inhibitor, single point].
